# Whole data set: some 33,000 sequences, median “E-score (-0.5 to 0.5)” near -0.04, cut for the highest 2% near 0.36. The list shows a part of the results.
# Target: T1, Hmlalpha2 (UniProt P0CY09)
# T1 sequence: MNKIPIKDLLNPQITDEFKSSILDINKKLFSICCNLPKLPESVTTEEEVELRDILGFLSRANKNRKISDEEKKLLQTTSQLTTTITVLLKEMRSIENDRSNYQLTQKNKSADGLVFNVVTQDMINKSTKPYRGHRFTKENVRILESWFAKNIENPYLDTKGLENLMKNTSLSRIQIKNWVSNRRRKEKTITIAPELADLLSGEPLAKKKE
# Assay: PBM E-score (8-mer binding enrichment) (E-score (-0.5 to 0.5)); higher = stronger / more preferred TF binding; most listed sequences are background and not binding sites
# Details: protein concentration: 200 nM; construct: GST-full length
# Protocol: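 Universal 'all 10-mer' protein binding microarrays (Agilent AMADID 015681) probed with GST-tagged S. cerevisiae TFs (full-length or DBD) made by in vitro transcription/translation (PURExpress), about 100-200 nM. Bound TF was detected with fluorescent anti-GST. Each ungapped 8-mer (which stands for itself and its reverse complement) is scored by the PBM enrichment score (E-score), a modified Wilcoxon-Mann-Whitney statistic from -0.5 to +0.5, computed with the Universal PBM Analysis Suite. Scale: above 0.35 generally sequence-specific binding.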
row,Sequence,PBM E-score
1,ACCAGATC,-0.114
2,ATAATCAT,0.205
3,CATGACCA,0.0558
4,CCCGTGCG,-0.0484
5,GGCTAGCA,-0.22
6,AACATATG,0.326
7,ACATAGTA,0.356
8,AACTTAAT,0.221
9,CCAATCAA,-0.0111
10,AGGGTAAA,0.0323
11,CTATGCGA,-0.121
12,CCTTGAGA,-0.0513
13,CCAGTATC,-0.296
14,AAGGAAAA,0.0876
15,AGGGCAAT,-0.29
16,AAGGCGGC,-0.162
17,ACAACGCG,0.253
18,GAGTGTAA,0.295
19,GAGCTCGC,-0.141
20,CGATCCTA,-0.14
21,AGGGAACC,-0.134
22,ATATCCAG,-0.0481
23,CCCACTTC,-0.22
24,GGGTACGA,-0.195
25,ATCTACAT,0.452

row,Sequence,PBM E-score
1,ATAGGGAG,-0.233
2,ATAATCCA,0.0175
3,AAACATAA,0.348
4,CCGGTCGA,-0.373
5,TAAACATA,0.416
6,GCACCGGC,-0.182
7,TACAAGTA,0.322
8,CGTGCCGA,-0.085
9,ATCCTACG,-0.115
10,AGGGCGTA,0.0328
11,CGGTAGGA,-0.218
12,AGGGATAA,0.0832
13,GACCCTGC,-0.287
14,ATTCACGA,0.149
15,GCCGCCGA,-0.109
16,ATTTGTTG,0.206
17,ACTAGTCT,0.039
18,AGGCAAAG,-0.132
19,AATGGAGA,-0.187
20,ATTGCAAA,0.102
21,CGTAAGTC,0.0646
22,ACCATTCG,0.0719
23,GGGACAAC,-0.075
24,ATTAAGTA,0.146
25,CGTTAATA,0.23

row,Sequence,PBM E-score
1,CGGTTAGC,-0.177
2,CAATCAGG,-0.159
3,TATGACAA,0.118
4,GGGAAAAC,-0.184
5,GACTGTCC,-0.237
6,CAAGCTTA,-0.0927
7,GCCGGCCC,-0.31
8,GCCTTGCC,-0.238
9,CAGCTACA,0.135
10,GACTAAGC,-0.194
11,AATCTGAG,-0.142
12,CTTTAAAA,0.145
13,GAGTATAC,0.191
14,GTGCCCAA,-0.0154
15,ACGGTCTG,0.0399
16,CAATACGA,0.13
17,GGTAAGCA,-0.0728
18,ACGGGTTG,-0.15
19,ATGGGCGC,-0.196
20,TCTGTTAA,0.331
21,ACATGAGA,0.406
22,ATTAGAAC,0.122
23,AAACCCCT,-0.266
24,AGCACGCA,0.0284
25,ACTACGCT,0.106

row,Sequence,PBM E-score
1,TGCATCCA,-0.132
2,TCAGGGCA,-0.0208
3,CTACGCCA,-0.0483
4,CCGAAGTC,-0.122
5,GCACACCC,-0.227
6,GATTGTAA,0.247
7,AAACGGAG,-0.0644
8,CAACTTAG,0.191
9,CTGTTATA,0.29
10,ACGACGAG,-0.0291
11,AAGCTATT,-0.0585
12,CCGGAGCG,-0.232
13,GCCAACGA,-0.105
14,AAATTTAG,0.0397
15,AACAAACA,0.309
16,CAACGGGC,-0.145
17,CCTGCGTC,-0.101
18,GATGTTCA,0.0603
19,ACAAGTTG,0.119
20,GACGGTCC,-0.359
21,AGCCGTAC,-0.148
22,CGAGCATC,-0.152
23,AGAACGAA,-0.11
24,AGCCGACT,-0.219
25,ACAAACAG,0.139

row,Sequence,PBM E-score
1,TCTGGGCA,-0.286
2,TGAAGACA,0.0849
3,GATAAGAA,0.172
4,CCCGGCCA,-0.263
5,CGCGCCGA,0.0621
6,GCTGCGCC,-0.257
7,CAACTAAG,-0.0633
8,AGCCCTTC,-0.278
9,TTACGTAA,0.426
10,CAAGTCTC,-0.0515
11,CAGCTGCA,-0.283
12,ACGTCCAC,-0.0151
13,AGCATAAA,0.0915
14,GAACCAAA,-0.0881
15,AGCCACCC,-0.289
16,ACCGAAAT,-0.0128
17,AGCAGTCG,-0.161
18,AAAGGTAT,0.076
19,ACCTAAGC,-0.11
20,CGGATACC,-0.019
21,AGATCAGA,-0.0413
22,CGTTCTCC,0.00164
23,AGTAGGAC,-0.22
24,TGCCACCA,-0.261
25,ACTGATAG,-0.0287

row,Sequence,PBM E-score
1,ACGTTAAG,0.255
2,AGAAGCAC,-0.076
3,ATCTAACG,0.109
4,GGTGCTCA,-0.179
5,CGGACCGC,-0.316
6,AATCTAGA,0.0688
7,AAGACGTC,-0.148
8,CCTATGAG,-0.201
9,AGAGCGAC,-0.106
10,AGATGACG,0.0621
11,AAAAACGC,0.156
12,AGCTAGTC,-0.0662
13,CATCTCGC,-0.178
14,AGTTGCGA,-0.00184
15,ACCTGCAG,-0.0825
16,AACTGTCA,-0.083
17,CCCTCGAG,-0.0849
18,ACCCTTGA,-0.207
19,ACAGTGTA,0.244
20,ACAATGCG,0.163
21,GAGTTGCC,-0.11
22,TAAAGTGA,0.0621
23,ACGGTAAA,0.0343
24,ACTCCAAG,-0.0433
25,TCACGTCA,-0.0196

row,Sequence,PBM E-score
1,GTCTAGCA,-0.106
2,TTTGCAAA,0.0325
3,AGTGGGGC,-0.34
4,GAAGTGCA,-0.0586
5,CCGCGGTC,-0.158
6,GCGGTCAA,0.0293
7,AAGATAAT,0.0837
8,CATATTTA,0.206
9,GCCCTAGC,-0.223
10,AGCCAGAT,-0.0722
11,GGAACTAA,-0.00978
12,CTGACGGC,-0.355
13,AATTACGC,0.431
14,AGGCAAAA,-0.146
15,ATCACAGA,0.0948
16,GTCGACAA,-0.0181
17,TATACAAA,0.265
18,AGCTGTCG,-0.0732
19,CCAATGAG,-0.18
20,ACAAGTTC,0.0505
21,AACGGACC,-0.0165
22,ACCGAGAG,-0.191
